The source of these data is PubChem BioAssay AID360 (National Center for Advancing Translational Sciences (NCATS), 2006).

Among all 48,000 compounds or so, about 550 (1.1%) were called active. Roughly 4% stayed inconclusive and do not appear here. No stated cut-off is given here; in the data, active means potency below about 15 µM; inconclusive means mostly about 16 µM to 33 µM; inactive means weaker than that. This is one part of the list. Bounds are passed on as bounds.
Potency means the concentration at half of the fitted maximal effect.

In this test the target is Lysosomal acid glucosylceramidase (Homo sapiens) (UniProt P04062). Description: Glucocerebrosidase.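 Further: the screen sought inhibitors.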 The following applies: purified enzyme, resorufin glucoside fluorescence (screen aimed at inhibitors), 20 min. The procedure, abridged: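 Normal human glucocerebrosidase (0.2 nM final) was assayed with resorufin β-D-glucopyranoside (30 uM final) in 50mM citric acid/KH2PO4, 10mM sodium taurocholate, 0.01% tween-20, pH 5.9. Compounds were titrated; fluorescence (Ex 548, Em 600) read after 20 min at RT.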
Sequence of UniProt P04062 (P04062 whole entry, looked up): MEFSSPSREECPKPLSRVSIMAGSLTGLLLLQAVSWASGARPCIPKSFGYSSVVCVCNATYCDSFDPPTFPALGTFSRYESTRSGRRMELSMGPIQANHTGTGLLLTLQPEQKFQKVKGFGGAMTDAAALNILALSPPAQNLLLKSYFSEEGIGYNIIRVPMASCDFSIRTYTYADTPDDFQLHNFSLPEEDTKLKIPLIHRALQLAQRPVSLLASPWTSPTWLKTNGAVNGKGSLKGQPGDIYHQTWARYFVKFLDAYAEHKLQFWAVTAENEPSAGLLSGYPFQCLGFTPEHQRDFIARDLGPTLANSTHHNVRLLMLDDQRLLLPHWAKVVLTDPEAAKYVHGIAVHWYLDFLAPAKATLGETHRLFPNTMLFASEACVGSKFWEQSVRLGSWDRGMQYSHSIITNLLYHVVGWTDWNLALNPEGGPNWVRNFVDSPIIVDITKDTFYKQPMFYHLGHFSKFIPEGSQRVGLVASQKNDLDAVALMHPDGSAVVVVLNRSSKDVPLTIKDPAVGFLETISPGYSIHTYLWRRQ
On to `O=C(Cn1cnc2ccccc2c1=O)Nc1ccc2c(c1)CCC2`, for which the Potency was inactive: > 76.9 µM.

`CCOc1cc(S(=O)(=O)NCc2ccco2)c(OCC)cc1-n1cnnn1`: the Potency was inactive: > 76.9 µM.

Turning to `Cc1cc(C)n2cc(CSCc3ccco3)nc2n1`, the Potency is inactive: > 76.9 µM.

With `Cc1ccc(C)n1NC(=O)c1ccc(Cl)cc1Cl`, the Potency is inactive: > 76.9 µM.

Take `COc1cc(CN2CCC(C(=O)NC3CCCC3)CC2)cc(OC)c1O`: the Potency was inactive: > 76.9 µM.

`C/C(N)=C(/C#N)C(=O)CSc1nc2cc(Cl)ccc2s1`: the Potency was inactive: > 76.9 µM.

As to `COc1ccc(NC(=O)CSc2nnc(-c3ccccc3C)n2N)cc1`, the Potency was inactive: > 76.9 µM.

For `CCC(=O)N1CCc2cc(S(=O)(=O)NCCN3CCC(C)CC3)ccc21`, the Potency was inactive: > 76.9 µM.

Regarding `NC(=O)c1ccccc1NC(=O)CN1CCOCC1`, the Potency was inactive: > 76.9 µM.

On to `Cc1cccc2cc(CN(Cc3ccco3)C(c3nnnn3CCc3ccccc3)C(C)C)c(=O)[nH]c12` (centres undefined), for which the Potency is inactive: > 76.9 µM.

In the case of `Cc1cc(=O)n2nc(N3CCCC(C(=O)N4CCN(c5ccccc5)CC4)C3)sc2n1` (centres undefined), the Potency was inactive: > 76.9 µM.

On to `CCS(=O)(=O)N1CCCC(C(=O)NCc2ccc3c(c2)OCO3)C1` (centres undefined), for which the Potency is inactive: > 76.9 µM.

Turning to `Cc1ccccc1NS(=O)(=O)c1cc(S(C)(=O)=O)ccc1Cl`, the Potency was inactive: > 76.9 µM.

With `COC(=O)Cc1cc(=O)n(-c2nc3ccccc3s2)[nH]1`, the Potency was inactive: > 76.9 µM.

Turning to `CCOC(=O)C1(C)NC(c2ccc(OC)cc2OC)C2C(=O)N(c3cccc(OC)c3)C(=O)C21` (centres undefined), the Potency was inactive: > 76.9 µM.

In the case of `CC(C)(C)c1cc(NC(=O)C2CCCO2)no1` (centres undefined), the Potency is inactive: > 76.9 µM.

In the case of `O=C(Nc1nccs1)c1ccc(Cl)c(S(=O)(=O)N2CCOCC2)c1`, the Potency is inactive: > 76.9 µM.

`CC(=O)c1c(C)nc(-c2ccc(Cl)cc2)nc1NC(=O)C(C)C`: the Potency is inactive: > 76.9 µM.

Turning to `CC1(C)CC(=O)NC=C(c2ccccc2)C1`, the Potency was inactive: > 76.9 µM.

As for `Cc1ccc(C(=O)OCc2cc3ccccc3[nH]c2=O)cc1`, the Potency was inactive: > 76.9 µM.

With `COc1cccc(NC2CC(=O)N(CCc3ccccc3)C2=O)c1` (centres undefined), the Potency is inactive: > 76.9 µM.

With `CCOC(=O)C1C(c2cccs2)NC(=O)NC1(O)C(F)(F)F` (centres undefined), the Potency is inactive: > 76.9 µM.

For the molecule `CCOc1ccccc1NC(=O)N1CCCC1C(=O)Nc1ccc(NC(C)=O)cc1` (centres undefined), the Potency was inactive: > 76.9 µM.

In the case of `OC(C#CCN1CCOCC1)(c1ccccc1)C1CC1` (centres undefined), the Potency was inactive: > 76.9 µM.

In the case of `CC(=O)c1cccc(NC(=O)N2CCCC2C(=O)Nc2ccccc2C)c1` (centres undefined), the Potency was inactive: > 76.9 µM.

As for `C1CN(c2nc3nonc3nc2N2CCOCC2)CCO1`, the Potency was inactive: > 76.9 µM.

With `COc1ccc(C(NC(=O)CNC(C)=O)C(=O)Nc2ccc3c(c2)OCCO3)cc1` (centres undefined), the Potency was inactive: > 76.9 µM.

On to `O=C(c1ccccc1)N1CCN(Cc2c[nH]c3ccccc23)CC1`, for which the Potency was inactive: > 76.9 µM.

On to `COc1ccc(N2CC(C)Cn3c2nc2c3c(=O)n(Cc3ccccc3F)c(=O)n2C)c(OC)c1` (centres undefined), for which the Potency is inactive: > 76.9 µM.

For the molecule `CCCCNC(=O)CCCCCn1c(=O)[nH]c2cc(OC)c(OC)cc2c1=O`, the Potency was inactive: > 76.9 µM.

Consider `CC(C)OC(=O)c1ccc(NC(=O)C2C3CC4OC(=O)C2C4C3)cc1` (centres undefined), for which the Potency was inactive: > 76.9 µM.

On to `Cc1nc2ccccc2c(=O)n1NC(=O)c1ccccc1Cl`, for which the Potency is inactive: > 76.9 µM.

Turning to `CN(c1ccccc1C(=O)N1CCOCC1)S(C)(=O)=O`, the Potency is inactive: > 76.9 µM.

For the molecule `COc1ccc2[nH]c(=O)c(CN(C3CCCCC3)C(c3nnnn3Cc3ccco3)C(C)C)cc2c1` (centres undefined), the Potency entry was “inactive”.

`Fc1cccc(CN2CCCCCCC2)c1`: the Potency is inactive: > 76.9 µM.

As to `CCCc1cc(=O)[nH]c(SCC(=O)N(C)CC(=O)Nc2ccccc2CC)n1`, the Potency was inactive: > 76.9 µM.

Take `O=P(O)(O)c1ccccc1OCc1ccccc1`: the Potency is inactive: > 76.9 µM.

With `Cc1ncsc1CCOC(=O)c1cccnc1`, the Potency is inactive: > 76.9 µM.

As for `CCOc1ccccc1N1CC(C(=O)Nc2nccs2)CC1=O` (centres undefined), the Potency was inactive: > 76.9 µM.

Turning to `CCOC(=O)N1CCN(C(=O)c2cc3c(ccc4ccccc43)oc2=O)CC1`, the Potency was inactive: > 76.9 µM.

With `O=C(COC(=O)c1ccco1)Nc1ccccc1`, the Potency was inactive: > 76.9 µM.

For `CCC1CCCCN1CCCNC(=O)c1ccc(CS(=O)(=O)Cc2ccccc2F)o1` (centres undefined), the Potency is inactive: > 76.9 µM.

On to `Cc1cc(=O)[nH]c(SCC(=O)Nc2nc3c(s2)CCCC3)n1`, for which the Potency is inactive: > 76.9 µM.

Consider `CC(=O)N1CCC2(CC1)C(C#N)=C(N)Oc1n[nH]c(CSc3ccc(C)cc3)c12`, for which the Potency was inactive: > 76.9 µM.

As for `C=CCc1ccc(OCC(O)CN2CCCCC2C)c(OC)c1` (centres undefined), the Potency is inactive: > 76.9 µM.

On to `Cc1cc(Cl)ccc1OCCCC(=O)N1CCN(C(=O)c2ccco2)CC1`, for which the Potency was inactive: > 76.9 µM.

With `COC(=O)CSc1nnc(CNc2ccc(OC)cc2)n1C`, the Potency was inactive: > 76.9 µM.

Regarding `COc1ccc(C(=O)Nc2nnc(-c3ccccc3)o2)cc1OC`, the Potency is inactive: > 76.9 µM.

On to `c1ccc2c(c1)C(=Nn1cnnc1)c1ccccc1-2`, for which the Potency was inactive: > 76.9 µM.

With `COc1ccc(C(C(=O)NC2CCCCC2)N2CCC3(CC2)OCCO3)cc1` (centres undefined), the Potency was inactive: > 76.9 µM.

`COc1ccc(C(=O)N(CCCO)C(C)C(=O)NC2CCCCC2)cc1OC` (centres undefined): the Potency was inactive: > 76.9 µM.

As for `Cc1ccccc1-c1n[nH]c(=S)o1`, the Potency is inactive: > 76.9 µM.

As to `CCn1c(COc2cccc(OC)c2)nnc1SCC(=O)Nc1cc(OC)ccc1OC`, the Potency is inactive: > 76.9 µM.

`Cc1cccn2c(=O)c3cc(C(=O)NCCCn4ccnc4)n(C)c3nc12`: the Potency is inactive: > 76.9 µM.

As to `COc1cc2nc(-c3cccs3)oc(=O)c2cc1OC`, the Potency is inactive: > 76.9 µM.

`CCCc1ccc(OCc2nc(-c3ccc(NC(=O)c4ccco4)cc3)no2)cc1`: the Potency was inactive: > 76.9 µM.

As for `c1csc(-c2nc3nc4ccccc4nc3n2Cc2ccc3c(c2)OCO3)c1`, the Potency was inactive: > 76.9 µM.

Regarding `Cc1c(=O)n(OCc2ccccc2F)c2ccccc2[n+]1[O-]`, the Potency was inactive: > 76.9 µM.

Regarding `COc1cc2nc3c4ccccc4n(CC#N)c3nc2cc1OC`, the Potency is inactive: > 76.9 µM.
